Measured values taken from the supplement of paper PMC3334620.
Whole data set: some 33,000 sequences, median “E-score (-0.5 to 0.5)” near -0.032, cut for the highest 2% near 0.36. The list shows a part of the results.

What follows are sequences tested against T1, Sko1 (UniProt Q02100) (assay: PBM E-score (8-mer binding enrichment) (E-score (-0.5 to 0.5)); higher = stronger / more preferred TF binding; most listed sequences are background and not binding sites). Conditions: protein concentration: 200 nM; construct: GST-full length.
T1 sequence: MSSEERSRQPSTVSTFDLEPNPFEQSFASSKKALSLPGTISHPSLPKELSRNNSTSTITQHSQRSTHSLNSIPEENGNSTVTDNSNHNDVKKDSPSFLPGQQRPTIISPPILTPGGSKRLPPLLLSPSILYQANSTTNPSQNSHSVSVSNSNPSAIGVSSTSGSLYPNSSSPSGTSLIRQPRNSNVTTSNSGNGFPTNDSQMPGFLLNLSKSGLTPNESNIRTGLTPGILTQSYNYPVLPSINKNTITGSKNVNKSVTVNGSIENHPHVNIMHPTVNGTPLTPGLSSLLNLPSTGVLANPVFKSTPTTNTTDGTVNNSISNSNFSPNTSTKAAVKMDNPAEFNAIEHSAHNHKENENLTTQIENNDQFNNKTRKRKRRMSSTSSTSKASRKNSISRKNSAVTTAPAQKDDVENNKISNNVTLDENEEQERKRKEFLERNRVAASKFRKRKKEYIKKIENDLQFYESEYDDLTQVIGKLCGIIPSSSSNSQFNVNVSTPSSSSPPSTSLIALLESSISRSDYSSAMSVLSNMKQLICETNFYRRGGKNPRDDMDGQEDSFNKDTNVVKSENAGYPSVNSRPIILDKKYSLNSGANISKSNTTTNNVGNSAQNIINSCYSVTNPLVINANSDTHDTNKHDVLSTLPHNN
Procedure: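 Universal 'all 10-mer' protein binding microarrays (Agilent AMADID 015681) probed with GST-tagged S. cerevisiae TFs (full-length or DBD) made by in vitro transcription/translation (PURExpress), about 100-200 nM. Bound TF was detected with fluorescent anti-GST. Each ungapped 8-mer (which stands for itself and its reverse complement) is scored by the PBM enrichment score (E-score), a modified Wilcoxon-Mann-Whitney statistic from -0.5 to +0.5, computed with the Universal PBM Analysis Suite. Scale: above 0.35 generally sequence-specific binding.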

| Sequence | PBM E-score |
| --- | --- |
| CATAATCC | -0.0152 |
| GCGCAGTA | 0.0755 |
| ACTACGTC | 0.433 |
| GATCGTCC | -0.19 |
| CTTGCCCC | -0.383 |
| GAATGGGA | -0.159 |
| ATATCTTC | 0.129 |
| CCGAATTA | -0.0393 |
| CACGGTTC | -0.0555 |
| AAGCACCC | -0.213 |
| CTTTAAAA | 0.152 |
| AATCTGAG | 0.102 |
| CAATACGA | 0.141 |
| ACGGTCTG | -0.0646 |
| GTGCCCAA | -0.0696 |
| GAGTATAC | 0.192 |
| CAGCTACA | -0.123 |
| GCCTTGCC | -0.237 |
| GACTAAGC | -0.231 |
| CGGTTAGC | -0.2 |
| ATTAAGTA | 0.152 |
| CGTTAATA | 0.122 |
| GGGACAAC | -0.139 |
| GCCGGCCC | -0.356 |
| CAAGCTTA | 0.00458 |

| Sequence | PBM E-score |
| --- | --- |
| GACTGTCC | -0.249 |
| GGGAAAAC | -0.118 |
| TATGACAA | 0.21 |
| CAATCAGG | -0.067 |
| ACCATTCG | -0.0948 |
| CGTAAGTC | 0.276 |
| ATTGCAAA | 0.00033 |
| ATTTGTTG | 0.212 |
| AATGGAGA | -0.101 |
| AGGCAAAG | -0.0571 |
| ACTAGTCT | -0.117 |
| CGGTAGGA | -0.235 |
| ATTCACGA | 0.222 |
| GCCGCCGA | -0.105 |
| GACCCTGC | -0.219 |
| AGGGATAA | 0.0363 |
| TACAAGTA | 0.153 |
| GCACCGGC | -0.151 |
| AGGGCGTA | -0.0132 |
| ATCCTACG | 0.116 |
| CGTGCCGA | 0.0979 |
| ATAGGGAG | -0.215 |
| ATAATCCA | 0.0742 |
| ATCTACAT | 0.227 |
| GGGTACGA | 0.0659 |

| Sequence | PBM E-score |
| --- | --- |
| ATATCCAG | -0.0263 |
| CCCACTTC | -0.144 |
| TAAACATA | 0.199 |
| CCGGTCGA | -0.355 |
| AAACATAA | 0.119 |
| GATGTTCA | -0.13 |
| GACGGTCC | -0.27 |
| ACAAGTTG | -0.041 |
| CAACGGGC | -0.0486 |
| AACAAACA | 0.101 |
| AAATTTAG | 0.128 |
| GCCAACGA | -0.186 |
| CCGGAGCG | -0.124 |
| CCTGCGTC | 0.122 |
| CTGTTATA | 0.177 |
| AAGCTATT | 0.08 |
| ACGACGAG | 0.00694 |
| GATTGTAA | 0.121 |
| CAACTTAG | 0.135 |
| AAACGGAG | -0.0521 |
| CCGAAGTC | -0.193 |
| CTACGCCA | 0.28 |
| GCACACCC | -0.106 |
| ACTACGCT | 0.153 |
| TCAGGGCA | -0.0833 |

| Sequence | PBM E-score |
| --- | --- |
| TGCATCCA | -0.142 |
| TCTGTTAA | 0.128 |
| AGCACGCA | 0.152 |
| AAACCCCT | -0.326 |
| ATTAGAAC | 0.175 |
| ACATGAGA | 0.184 |
| ACGGGTTG | -0.0864 |
| GGTAAGCA | -0.235 |
| ATGGGCGC | -0.247 |
| GAGTGGTA | -0.0433 |
| GTCCCCAC | -0.115 |
| ATGTCAAT | 0.226 |
| AGCCTGCG | -0.229 |
| AATCGAAC | 0.0773 |
| ATCTTCGG | 0.155 |
| GTTACAAC | 0.114 |
| AAACTAAT | 0.275 |
| ATTTGGGA | 0.0335 |
| ACGTGCCT | 0.239 |
| ATCCCATC | -0.0438 |
| GACTAGAA | 0.0577 |
| CTTGGGTA | -0.0702 |
| ATCGGCGG | -0.176 |
| ACATCAGC | 0.153 |
| CGGACCCC | -0.113 |

| Sequence | PBM E-score |
| --- | --- |
| CTTCGAAC | -0.124 |
| TATAGGAA | 0.19 |
| GCCACTCA | -0.118 |
| GACTCACC | -0.118 |
| CAGTTGTC | 0.0392 |
| GGACTGCA | -0.168 |
| GTATCAGA | 0.0996 |
| AGTACCCC | -0.241 |
| AGGATGGA | -0.253 |
| ATTGCAAT | 0.0317 |
| ATCGACAA | -0.0524 |
| AGCATGTC | -0.0862 |
| GGATAACA | -0.128 |
| ACGTTCAA | 0.266 |
| ATATTAGG | 0.147 |
| ATCAAAGA | 0.00292 |
| GATTCGGC | -0.129 |
| GCCTATCC | -0.11 |
| CCCTAGAG | -0.32 |
| TAACGACA | 0.191 |
| GTAGCTCA | 0.0173 |
| AAATACAT | 0.252 |
| ACAACTGC | -0.079 |
| AGGGACCT | -0.209 |
| ATGATCTG | 0.151 |

| Sequence | PBM E-score |
| --- | --- |
| CGCTGTGC | -0.202 |
| CAACATCC | -0.281 |
| CGACAAGC | -0.251 |
| CCGGGAGC | -0.296 |
| AGGCTGAG | -0.138 |
| CCAAAGTA | -0.0943 |
| GAAGTTAA | -0.0699 |
| CAAACCAC | 0.0506 |
| ACATCAAT | 0.285 |
| ACATCAAC | 0.159 |
| AAACCCAG | -0.156 |
| CCACCAAG | -0.374 |
| GACCAAGC | -0.0837 |
| AATAACAC | 0.139 |
| AACATCCA | 0.0185 |
| ATCAATGC | -0.112 |
| GGACAAAC | -0.0937 |
| GAAAAGGA | -0.0667 |
| ATAGCCAG | -0.0476 |
| CCTGATCG | -0.175 |
| ATTTGTGA | -0.00762 |
| AAATTGAT | 0.084 |
| TCCTGCCA | -0.292 |
| GAGCTAAA | -0.0589 |
| ACCTCCAA | -0.189 |

| Sequence | PBM E-score |
| --- | --- |
| ATGGAAAA | -0.0735 |
| ACGGGTCA | -0.252 |
| AAAGCTTT | -0.0511 |
| ACTCAGAC | -0.0311 |
| AGTACGGA | -0.0994 |
| ACAGCCCG | -0.163 |
| AAAACAGT | 0.0855 |
| ATAGTCTC | 0.0223 |
| ACGCCTTG | -0.0512 |
| AGTCTGAA | 0.0457 |
| AAAAGGCC | -0.186 |
| AGAGAGAA | -0.0788 |
| CTGATGGA | -0.118 |
| CCGGCTGC | -0.0698 |
| CAATAAAA | 0.187 |
| AATCTCTG | -0.00643 |
| AGAGGAAA | -0.135 |
| CTGTAGAA | -0.134 |
| GAGTCAGA | -0.0744 |
| CCAATTAA | 0.00205 |
| AAAAACGG | -0.117 |
| AGTGTTAA | 0.128 |
